The values below come from ChEMBL document CHEMBL4888484, “Replenishing the malaria drug discovery pipeline: Screening and hit evaluation of the MMV Hit Generation Library 1 (HGL1) against asexual blood stage Plasmodium falciparum ,using a nano luciferase reporter read-out” (2022).

Each structure is given as a SMILES string. Out of some 150,000 compounds screened, about 540 (0.36%) showed an effect of 50% or more. The list shows a part of the results.

This experiment concerns Plasmodium falciparum. In words: Primary screen in NF54 nanoGlo assay, in single point, at 2uM, 72h; a lower Z score goes with more inhibition. It is filed as functional, Erythrocyte. As to conditions: timepoint 72 hour.
For `COC(=O)c1ccc(Cl)c(NC(=O)c2coc(C3CCC3)n2)c1C`, the “% Inhibition” value is 2% and the Z score was -0.28.
`CC1CCCC(NC(=O)Cn2cnnn2)C1` (stereo not drawn): the “% Inhibition” value is recorded as -1% and the Z score was determined as 0.13.
On to `Cc1nn(-c2ccccc2)c2sc(-c3noc(C4CCCCC4)n3)cc12`, for which the “% Inhibition” value amounted to 20% and the Z score is listed as -2.33.
Regarding `O=C(CCn1ccccc1=O)N1CCOc2c(F)ccc(F)c21`, the “% Inhibition” value was -2% and the Z score was determined as 0.31.
Taken in the same sequence, the figures for `CCOC1CC(N(C)C(=O)c2ccc(CN)cc2)C12CCCC2` (stereo not drawn) were 2% and -0.33.
Take `CS(=O)(=O)NCCOc1ncc(Cl)cc1Cl`: the “% Inhibition” value is given as -4% and the Z score is 0.58.
As to `Nc1nc(N2CCN(C(=O)[C@H]3CC[C@@H](O)CC3)CC2)cc(=O)[nH]1`, the “% Inhibition” value is recorded as -3% and the Z score is listed as 0.34.
Consider `CN1CCCC(N2C[C@@H]3CN(c4nc5ccccc5o4)C[C@]3(C)C2)C1=O` (stereo partly drawn), for which the “% Inhibition” value is -2% and the Z score is 0.34.
In the case of `CC1CCC(N(CC(=O)NC(N)=O)C2CC2)CC1` (stereo not drawn), the “% Inhibition” value is 33% and the Z score is -0.86.
Turning to `O=C(Nc1ccc2c(c1)OCO2)Nc1nn(Cc2ccc(Cl)cc2Cl)cc1Cl`, the “% Inhibition” value is given as -10% and the Z score came to 1.38.
For `Nc1nccnc1C(=O)NCC1(c2c(F)cccc2F)CCCC1`, the “% Inhibition” value was -7% and the Z score stood at 1.21.
The corresponding values for `COc1cc(NC(C)=O)ccc1N[C@@H](C)c1cnn(C(C)C)c1` are 9% and -1.
With `Cc1ccc2ncc(CNc3nnc(C(F)F)s3)n2c1`, the “% Inhibition” value worked out at 5% and the Z score is recorded as -0.92.
As for `CCCn1ccc2cc(NS(=O)(=O)c3c(C)nn(C)c3Cl)ccc21`, the “% Inhibition” value is recorded as -8% and the Z score came to 1.06.
For the compound `Cc1nc(-c2ccc(C)c(-n3cc(C(=O)N4CCN(c5cc(Cl)ccc5C)CC4)c(C)n3)c2)no1`, the “% Inhibition” value is given as -12% and the Z score stood at 1.74.
As to `COCc1cccc(C(=O)N2CCC[C@H]3CN(C)C[C@H]32)c1`, the “% Inhibition” value was 0% and the Z score was found to be 0.04.
With `CCN(CC)C(=O)CS(=O)(=O)c1cncc(Br)c1`, the “% Inhibition” value was -5% and the Z score came out at 0.96.
Taken in the same sequence, the figures for `COCc1nc(NCCN2CCNC2=O)c2cnn(C)c2n1` were -6% and 0.82.
Taken in the same sequence, the figures for `C[C@H](O)CC(C)(C)CNC(=O)NCc1cc(C(F)(F)F)on1` were -3% and 0.45.
For the compound `O=C(CCN1CCc2onc(-c3cccc4ccccc34)c2C1)N1CCCC1`, the “% Inhibition” value was -1% and the Z score was found to be 0.14.
The corresponding values for `O=C(c1ccc(F)c(F)c1F)N1C[C@@H]2CN(CC3CCC3)C[C@]2(C(=O)O)C1` are -16% and 1.51.
With `Brc1ccc2cc(Oc3ncccn3)ccc2c1`, the “% Inhibition” value is -19% and the Z score stood at 3.03.
In the case of `C=CCCS(=O)(=O)N1CCC[C@H](c2nncn2C(C)C)C1`, the “% Inhibition” value is -4% and the Z score worked out at 0.52.
In the case of `COC(=O)c1ccccc1N1C(=O)[C@@H]2[C@H](Cc3ccccc3)N[C@]3(C(=O)Nc4c3ccc(Cl)c4C)[C@@H]2C1=O`, the “% Inhibition” value was -8% and the Z score was found to be 0.97.
Take `Cc1ccc(C(C)NC(=O)N(C2CC2)C(C)C2CC2)o1` (stereo not drawn): the “% Inhibition” value is -2% and the Z score is listed as 0.22.
The corresponding values for `Cn1ccc(-c2noc([C@@H](O)C3CCCC3)n2)n1` are 5% and -0.92.
With `Cc1noc(C)c1CC(=O)Nc1ccc2c(c1)NC(=O)[C@H](C)O2`, the “% Inhibition” value is -5% and the Z score is listed as 0.84.
Taken in the same sequence, the figures for `CCCN1C(=O)[C@H](Cc2ccccc2)NC12CCN(S(=O)(=O)c1ccc(Cl)c(Cl)c1)CC2` were -7% and 0.95.
As to `CCc1ccccc1OCCN1C[C@H](O)[C@@H](F)C1`, the “% Inhibition” value is recorded as -3% and the Z score is 0.6.
As to `COc1ccc(F)cc1C(=O)N1CCN(c2cc(=O)[nH]c(N)n2)CC1`, the “% Inhibition” value is given as -6% and the Z score is 1.26.
Take `O=C1NC2=Nc3ccccc3NC(c3ccccc3)=C2[C@H](c2ccccc2Cl)N1`: the “% Inhibition” value is 4% and the Z score is recorded as -0.47.
As for `CC(C)(C)CC(C)(C)NCc1ccccn1`, the “% Inhibition” value was determined as 29% and the Z score is -3.86.
With `Cc1nc(Cn2nc3ccccc3n2)n(CCO)n1`, the “% Inhibition” value is on record as -8% and the Z score was determined as 0.8.
In the case of `O=C(NCC1COCCO1)c1cn(CC(O)c2ccsc2)nn1` (stereo not drawn), the “% Inhibition” value is recorded as -12% and the Z score is given as 2.35.
Taken in the same sequence, the figures for `CCCn1ncc(C(=O)NCCNc2cc(C)ccn2)c1C` were -21% and 1.82.
In the case of `Cc1ccc(S(=O)(=O)N[C@@H](C)c2cc3n(n2)CCCC3)c(C)c1`, the “% Inhibition” value was -3% and the Z score worked out at 0.55.
On to `COc1ccc(CN2CCCc3c2cccc3S(N)(=O)=O)nn1`, for which the “% Inhibition” value is -8% and the Z score amounted to 0.81.
As for `OCCCNCc1cc2cc3c(cc2nc1OCc1cccc(F)c1)OCO3`, the “% Inhibition” value was -9% and the Z score was 0.99.
Take `O=C1NC2(CCCC2)C(=O)N1Cc1nnc(-c2ccccc2)o1`: the “% Inhibition” value was -30% and the Z score is listed as 3.47.
Regarding `O=C(N[C@@H]1C[C@H]1c1ccc(Cl)cc1)C1CCCN1C1CCOCC1` (stereo partly drawn), the “% Inhibition” value was -7% and the Z score was determined as 0.73.
For the compound `C[C@@H](C(=O)N1CCN(c2ccccn2)CC1)n1c2ccccc2c2cnn(C)c(=O)c21`, the “% Inhibition” value was -6% and the Z score was found to be 1.18.
For `CCC[C@H]1COCCN1Cc1cnc(OC)nc1`, the “% Inhibition” value was -7% and the Z score is 1.19.
The corresponding values for `CCOc1cc(CNc2ccn(CCC(N)=O)n2)ccc1O[C@@H](C)C(=O)N(C)C` are 0% and 0.06.
As to `NC[C@H]1CCCN1C(=O)c1ccnc(C2CC2)n1`, the “% Inhibition” value is recorded as 0% and the Z score was -0.06.
For the compound `CC1CN(C(=O)c2ccc3[nH]ncc3c2)CC(C)N1` (stereo not drawn), the “% Inhibition” value is -1% and the Z score came out at 0.1.
In the case of `CN(CCc1ccccc1)C[C@@H]1OC[C@H](NC(=O)C2CCC2)[C@H]1O`, the “% Inhibition” value stood at 3% and the Z score was -0.41.
Taken in the same sequence, the figures for `N#Cc1[nH]ncc1NS(=O)(=O)c1ccc2c(c1)CCCC2` were 4% and -0.52.
`CCCCN(Cc1cccn1Cc1cccc(C)c1)C(=O)CN(CC(C)C)C(=O)c1ccc(OC)cc1`: the “% Inhibition” value is reported as -6% and the Z score is reported as 0.83.
Turning to `Cc1nc2c(c(N3CCC(NC(=O)Cc4cccnc4)CC3)n1)CCCC2`, the “% Inhibition” value is -10% and the Z score is recorded as 1.34.
Taken in the same sequence, the figures for `CC(O)CN(C(=O)NC1c2ccccc2CCCC1C)C(C)CO` (stereo not drawn) were 4% and -0.79.
As for `CC(N=C1NC(=NC(C)c2ccccc2)c2ccccc21)c1ccccc1` (stereo not drawn), the “% Inhibition” value worked out at 24% and the Z score is -3.04.
On to `CC[C@H](C)[C@@H]1NC(=O)[C@@H]2C[C@H](NC(=O)c3ccc(-c4ccccc4)cc3)CN2C1=O`, for which the “% Inhibition” value is on record as -12% and the Z score is listed as 1.4.
Taken in the same sequence, the figures for `Cc1ccc(NC(=O)N2CCC(N3CC(F)(F)C[C@H]3COCC3CC3)CC2)c(C)c1` were -3% and 0.59.
Taken in the same sequence, the figures for `CC1NC(=O)CCC1NC(=O)C1CC1C1CC1` (stereo not drawn) were -2% and 0.25.
Take `CNc1c(-n2cc(C(=O)OC)c(C(=O)OC)c2C#N)c(=O)n(C)c(=O)n1C`: the “% Inhibition” value worked out at 35% and the Z score is reported as -4.5.
The corresponding values for `Clc1cc(Cl)c2oc(N3CC[C@H](c4nn[nH]n4)C3)nc2c1` are -8% and 1.57.
The corresponding values for `Cc1cnc(C(C)(C)NC2CCOC2C)s1` (stereo not drawn) are -5% and 0.73.
For `COc1ccc(N2C[C@@]34C=C[C@@H](O3)C(C(=O)NCc3ccncc3)[C@H]4C2=O)cc1` (stereo partly drawn), the “% Inhibition” value is on record as 5% and the Z score was -0.57.
With `Cc1cccc(N(C)C(=O)c2ccc(-c3cccc(Br)c3)n2C)n1`, the “% Inhibition” value was -5% and the Z score was determined as 0.59.
In the case of `O=C(CCc1nnc2ccc(N3CCOCC3)nn12)NC1CCCC1`, the “% Inhibition” value is recorded as -22% and the Z score is listed as 2.1.
As for `COc1cc2c(cc1CNC(=O)c1nn(C)c3c1CCCC3)OCCO2`, the “% Inhibition” value is given as -19% and the Z score is on record as 3.66.
Turning to `CCN(Cc1nonc1C)C(=O)c1cc(C)n(C(F)F)n1`, the “% Inhibition” value worked out at 7% and the Z score was -0.87.
Turning to `Cc1cc(C)cc(CNC(=O)N(C)CC2(CO)CCOCC2)c1`, the “% Inhibition” value is given as 0% and the Z score is recorded as -0.06.
Regarding `CS(=O)(=O)N1CCN(C(=O)c2coc(NC(=O)c3ccccc3)n2)CC1`, the “% Inhibition” value is listed as -5% and the Z score was 0.77.
In the case of `Cc1n[nH]c(C)c1S(=O)(=O)Nc1cccc2c1CCCC2`, the “% Inhibition” value turned out to be 3% and the Z score was -0.5.
On to `O=C(NCc1cccnc1Oc1ccc(F)cc1F)[C@H]1CCCNCC1`, for which the “% Inhibition” value came to 7% and the Z score is -1.29.
As for `Cc1ccc(CN(Cc2ccc3c(c2)OCO3)CC(C)(C)O)o1`, the “% Inhibition” value is recorded as -10% and the Z score is listed as 1.48.
Take `Cc1ccc(CC(=O)Nc2ccc(N3C(=O)CC[C@@H]3C)cc2)cc1F`: the “% Inhibition” value was 0% and the Z score came out at 0.06.
Taken in the same sequence, the figures for `CC(CC(=O)O)C1CCCN(C(=O)OC(C)(C)C)C1` (stereo not drawn) were -3% and 0.53.
In the case of `COc1ccc2cc3n(c2c1)C[C@@](C)(C(=O)NC1CCCC1)N(c1ccc(Cl)cc1)C3=O`, the “% Inhibition” value is listed as 2% and the Z score is given as -0.33.
On to `Cc1ccc(C(=O)N(CCC#N)C2CCOCC2)cc1Cl`, for which the “% Inhibition” value is on record as -13% and the Z score came out at 1.71.
For `O=C(NC1CCCCC1)c1cscn1`, the “% Inhibition” value was -7% and the Z score is on record as 0.92.
For `CN1C[C@H](c2nc(C3CC3)no2)C2(CCN(C(=O)c3ccc4c(c3)OCO4)CC2)C1`, the “% Inhibition” value was -7% and the Z score is reported as 0.86.
The corresponding values for `CC(NC1CCCC(C2CC2)C1)c1cnccn1` (stereo not drawn) are -6% and 0.79.
For the compound `Cc1cc(C(=O)NCc2cccc(CN(C)C)c2)c2nc3n(c2n1)CCCCC3`, the “% Inhibition” value is -5% and the Z score is on record as 0.56.
As to `CC1CN(S(=O)(=O)c2cccc(C(=O)NC3(C)CCS(=O)(=O)C3)c2)CC(C)O1` (stereo not drawn), the “% Inhibition” value was -6% and the Z score was 1.02.
As to `Cc1cc(CS(=O)(=O)[C@@H](C)C(=O)NC(C)C)no1`, the “% Inhibition” value was 24% and the Z score is -3.12.
Take `O=C(CNC1(c2noc(C3CC3)n2)CCCC1)NCCc1cccs1`: the “% Inhibition” value is on record as -14% and the Z score is recorded as 1.51.
With `CCN1C(=O)NC(C)(C2CCCN(Cc3nnnn3C3CC3)C2)C1=O` (stereo not drawn), the “% Inhibition” value came to 7% and the Z score is given as -0.85.
Turning to `Cc1cc(C)cc(OCC(=O)N2CCN(S(=O)(=O)c3ccc4ccccc4c3)CC2)c1`, the “% Inhibition” value is on record as -8% and the Z score was 1.32.
On to `C[C@H]1CN(S(=O)(=O)C[C@]23CC[C@H](CC2=O)C3(C)C)CC(=O)N1`, for which the “% Inhibition” value is -30% and the Z score is 2.63.
In the case of `CN(C)c1nc2c(s1)CN(c1nccn3cnnc13)CC2`, the “% Inhibition” value is recorded as -12% and the Z score was found to be 1.38.
In the case of `O=C(Nc1cc[nH]n1)c1ccc2c(c1)OCCO2`, the “% Inhibition” value is reported as -7% and the Z score is given as 1.02.
With `COCCN(CCC(=O)O)C(=O)CCCc1ccccc1`, the “% Inhibition” value is -2% and the Z score worked out at 0.28.
